In all, about 350,000 compounds went through this assay and about 31,000 (8.9%) were called active. Inconclusive results, whose numbers are uncertain, are shown with a selection of clear calls. Calls come from the whole dose curve; as a rule, active = well fitted inhibition curve with a large enough effect; inconclusive = small, poorly fitted or top-dose-only effect; inactive = no such curve, though single readings can be large or run the other way. Potencies of inconclusive entries are doubtful fits and often do not repeat.
The compounds below were run against Histone-lysine N-methyltransferase EHMT2 (Homo sapiens) (UniProt Q96KQ7) (assay: qHTS Assay for Inhibitors of Histone Lysine Methyltransferase G9a). Details: G9a H3K9 monomethylation, AlphaScreen, 2 h; activity, negative = inhibition: at 59 µM (top of the series) unless noted.
UniProt Q96KQ7, sequence (Q96KQ7 whole entry, looked up): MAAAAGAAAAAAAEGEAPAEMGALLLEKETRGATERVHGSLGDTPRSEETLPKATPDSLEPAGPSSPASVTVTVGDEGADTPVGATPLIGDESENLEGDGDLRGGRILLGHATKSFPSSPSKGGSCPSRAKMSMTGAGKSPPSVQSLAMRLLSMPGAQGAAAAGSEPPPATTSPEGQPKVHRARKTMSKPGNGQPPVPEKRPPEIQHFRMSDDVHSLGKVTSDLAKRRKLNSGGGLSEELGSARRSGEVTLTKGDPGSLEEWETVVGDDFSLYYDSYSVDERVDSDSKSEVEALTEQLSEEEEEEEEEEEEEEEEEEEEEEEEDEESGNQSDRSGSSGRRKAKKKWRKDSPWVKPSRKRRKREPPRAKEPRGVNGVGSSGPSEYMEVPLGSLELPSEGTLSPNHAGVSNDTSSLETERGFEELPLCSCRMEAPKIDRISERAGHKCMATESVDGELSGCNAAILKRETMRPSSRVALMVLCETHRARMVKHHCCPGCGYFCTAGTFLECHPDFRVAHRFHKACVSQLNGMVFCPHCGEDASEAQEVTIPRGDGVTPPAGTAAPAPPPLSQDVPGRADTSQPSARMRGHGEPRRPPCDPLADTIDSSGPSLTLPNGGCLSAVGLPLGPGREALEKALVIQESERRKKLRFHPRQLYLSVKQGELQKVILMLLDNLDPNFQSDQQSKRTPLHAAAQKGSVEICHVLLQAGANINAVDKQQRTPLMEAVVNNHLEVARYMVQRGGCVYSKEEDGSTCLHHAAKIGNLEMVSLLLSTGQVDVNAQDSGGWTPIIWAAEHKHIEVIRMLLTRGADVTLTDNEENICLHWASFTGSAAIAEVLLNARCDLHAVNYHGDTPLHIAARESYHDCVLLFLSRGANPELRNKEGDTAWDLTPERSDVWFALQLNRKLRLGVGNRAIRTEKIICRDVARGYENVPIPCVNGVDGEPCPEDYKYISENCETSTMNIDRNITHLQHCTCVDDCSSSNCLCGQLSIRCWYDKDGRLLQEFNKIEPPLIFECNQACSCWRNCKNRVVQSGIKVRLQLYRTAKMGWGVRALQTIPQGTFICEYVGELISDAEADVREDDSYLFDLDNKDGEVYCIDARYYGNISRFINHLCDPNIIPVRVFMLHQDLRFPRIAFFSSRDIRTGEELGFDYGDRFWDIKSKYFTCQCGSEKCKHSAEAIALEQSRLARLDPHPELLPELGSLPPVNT
How it was run: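 Methyltransferase reactions run at room temperature for 2 h (20 nM enzyme, 500 nM biotin-H3K9 peptide, 20 uM SAM) after a 15 min compound preincubation; product detected by AlphaScreen beads and anti-H3K9me1 antibody.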
% is set by controls: 0 for no effect and ±100 for the full control effect; potency is the fitted concentration of half-maximal effect; tags give direction and shape of the fitted curve.
Note: nearly all actives have a fitted effect of over 75% in size.

SMILES	Potency	activity, negative = inhibition
O=C(COc1ccc(Cl)cc1Cl)Nc1ccc(C(=O)OC2CCCCC2)cc1	inactive	
c1ccc2nc3c(nc2c1)CCc1nonc1-3	inactive	
C/C(=N/NS(=O)(=O)c1cc(C)ccc1C)c1c[nH]c2ccccc12	inconclusive: 7.08 µM [inhibitor, partial curve, poor fit]	
CC(CCc1ccccc1)NC(=O)C1CCCN(c2nnc(-n3cccc3)s2)C1 (stereo not drawn)	inactive	
C[C@@H](C(=O)NCc1ccc(S(C)(=O)=O)cc1)[C@@H]1C[C@@]1(C)[C@@H](NC(=O)OCc1ccccc1)c1ccccc1	inconclusive: 89.1 µM [inhibitor, single point]	
CCCCC1(Cc2ccc([N+](=O)[O-])cc2)C(=O)N(c2ccccc2)N(c2ccccc2)C1=O	inconclusive: 25.1 µM [inhibitor, single point]	
O=C(CSc1nnc(-c2ccco2)o1)c1ccccc1	inactive	
CNC(=O)c1ccc(NC(=O)c2cc(S(=O)(=O)N(C)C)ccc2N2CCCC2)cc1	inconclusive: 35.5 µM [inhibitor, single point]	
Cc1ccc(NC(=O)CSc2nc(=O)n(CCN3CCOCC3)c3c2CCC3)cc1Cl	inactive	
Cc1ccc(Nc2c(-c3cccc(Cl)c3)nc3cccc(C)n23)cc1	inconclusive: 8.91 µM [inhibitor, partial curve, poor fit]	
CC(=O)n1c2ccccc2c2ccccc21	inactive	
Cc1c(NC(=O)c2nn3c(C(F)(F)F)cc(-c4ccccc4)nc3c2Br)c(=O)n(-c2ccccc2)n1C	inconclusive: 1.26 µM [inhibitor, full curve]	
CC(C)C[C@H](NC(=O)C1(c2ccccc2)CCN(C(=O)OC(C)(C)C)CC1)C(=O)N1CCC[C@H]1C(=O)O	inactive	
Cc1cc(=S)[nH]c2c(C)cccc12	inconclusive: 89.1 µM [inhibitor, single point]	
O=C(Oc1ccccc1)N1CCC2(CCCN(c3ccccc3)C2)CC1		inactive: 0.916% [at 12.7 µM]
O=C1CCC[C@@H]2[C@H]3CCC[N+]4([O-])CCC[C@@H](CN12)[C@@H]34 (stereo partly drawn)		inactive: 28.6% [at 0.501 µM]
O=C(Cc1ccc(S(=O)(=O)N2CCOCC2)s1)N1CCN(c2ccc(C(F)(F)F)cc2[N+](=O)[O-])CC1		inactive: 5.52% [at 0.501 µM]
O=C(O)c1cc2c(cc1NC(=O)c1c(F)cccc1Cl)OCCCO2	inactive	
FC(F)(F)c1cc(-c2ccco2)nc(NCc2ccccc2)n1		inconclusive: -56.8% [inhibitor]
NCCN	inactive	
CCCCn1c(N)c(N(CC(C)C)C(=O)CSCC(=O)Nc2ccc(C)cc2)c(=O)[nH]c1=O	inconclusive: 6.31 µM [inhibitor, single point]	
CC(c1ccccc1)N(NC(=O)C(O)(c1ccccc1)c1ccccc1)C(=O)c1ccccc1 (stereo not drawn)	inconclusive: 79.4 µM [inhibitor, partial curve, poor fit]	

SMILES	Potency	activity, negative = inhibition
COc1ccccc1NC(=O)c1cc(OC)c(OC)cc1[N+](=O)[O-]	inactive	
Cc1cccc(C(=O)NCc2cn3cccc(C)c3n2)c1	inconclusive: 22.4 µM [inhibitor, single point]	
COc1cc(OC)c(OC)cc1CNCc1ccc2c(c1)OCO2	active: 44.7 µM	
N#CCC(=O)Nc1ccccc1C(=O)O	inconclusive: 89.1 µM [inhibitor, single point]	
O=C(O)c1cc(O)c2c(c1)[C@@H]([C@H]1c3cc(C(=O)O)cc(O)c3C(=O)c3c(O[C@@H]4O[C@H](CO)[C@@H](O)[C@H](O)[C@H]4O)cccc31)c1cccc(OC3O[C@H](CO)[C@@H](O)[C@H](O)[C@H]3O)c1C2=O (stereo partly drawn)	active: 1.26 µM	
COc1ccc(C2COC(=O)C2=N)c(NC(=O)c2ccc(Cl)cc2)c1 (stereo not drawn)	inconclusive: 31.6 µM [inhibitor, single point]	
COc1cc(/C=N/Nc2nc(Nc3ccccc3)nc(N3CCOCC3)n2)ccc1OC(=O)c1ccco1	inconclusive: 79.4 µM [inhibitor, partial curve, poor fit]	
COc1ccc(C(=O)Nc2ccc(N3CCCC3)cc2)cc1	active: 1.58 µM	
CCOC(=O)C1CCCN(C(=O)Cn2nc(C)n3c(cc4c(OC)cccc43)c2=O)C1 (stereo not drawn)	inactive	
CCOc1ccc2nc(NCCCO)[nH]c2c1	inconclusive: 28.2 µM [inhibitor, single point]	
CCCS(=O)(=O)N1CCCC(C(=O)NCCCOC(C)C)C1 (stereo not drawn)	inconclusive: 6.31 µM [inhibitor, single point]	
COc1ccc(CN(CC(=O)NCc2ccc3c(c2)OCO3)C(=O)c2csnn2)cc1	inconclusive: 89.1 µM [inhibitor, single point]	
CCc1ccc(CN(C)C(C)C(=O)Nc2ccc(S(=O)(=O)N3CCCC3)cc2)cc1 (stereo not drawn)	inconclusive: 44.7 µM [inhibitor, partial curve]	
COc1ccc(S(=O)(=O)N(C(=O)c2ccncc2)c2ccc3oc(C)c(C(C)=O)c3c2)cc1	inconclusive: 8.91 µM [inhibitor, partial curve]	
Cc1ccc(CNC(=O)C2CCN(S(=O)(=O)c3c(C)noc3/C=C/c3ccccc3F)CC2)o1	inactive	
CC1CCCN(S(=O)(=O)c2ccc3c(c2)CCN3C(=O)C2CCC2)C1 (stereo not drawn)		inactive: -1.09% [at 12.7 µM]
CC(OC(=O)CNC(=O)c1ccc(Cl)c([N+](=O)[O-])c1)C(=O)NC1CCCCC1C (stereo not drawn)	inconclusive: 89.1 µM [inhibitor, single point]	
CCOc1ccccc1-c1nc(CN2CCC(C(=O)N3CCOCC3)CC2)c(C)o1	active: 89.1 µM	
COc1ccccc1OC(C)C(=O)N1CCN(CCc2ccccn2)CC1 (stereo not drawn)	inconclusive: 7.08 µM [inhibitor, single point]	
COc1ccc(S(=O)(=O)N2CCCC2)cc1C(=O)N1CCOCC1	inconclusive: 44.7 µM [inhibitor, full curve]	
Cn1c(N)c(C#N)c(C#N)c1-c1ccccc1	inconclusive: 44.7 µM [inhibitor, partial curve, poor fit]	
